Assay results as given in the supplement of paper PMC12217912.
The list shows a part of the results. The full chains were built here from the parent and the listed change. Inactive controls read about 0.05.

B1: TEV protease; numbered along this chain (parent)
chain: MGESLFKGPRDYNPISSSICHLTNESDGHTTSLYGIGFGPFIITNKHLFRRNNGTLVVQSLHGVFKVKDTTTLQQHLVDGRDMIIIRMPKDFPPFPQKLKFREPQREERICLVTTNFQTKSMSSMVSDTSCTFPSGDGIFWKHWIQTKDGQCGSPLVSTRDGFIVGIHSASNFTNTNNYFTSVPKNFMELLTNQEAQQWVSGWRLNADSVLWGGHKVFMVKPEEPFQPVKEATQL

Variants of: B1
Assay: raw area under fraction-flipped curve 0-4 h after induction (AUC4h, not background-subtracted), DNA-recorder readout of cleavage of the substrate (dimensionless); higher = more cleavage of the substrate by the protease variant
Settings: temperature: 34 °C; time window: 0-4 h after rhamnose induction
Procedure: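 In vivo DNA recorder in E. coli TOP10(DE3) ΔrhaA at 34 °C. Each TEVp single-site mutant (parent TEVp 0) is paired with a single-site variant of the 7-mer TEVs (canonical ENLYFQ|S). The substrate sits between flexible linkers in a Bxb1-sfGFP-TEVs-SsrA fusion, so cleavage stabilises Bxb1 and speeds flipping of a recombination array, read by NGS. The value is the raw area under the fraction-flipped curve over 0-4 h after rhamnose induction (AUC4h), with ≥20 reads per time point. It is not background-subtracted; inactive controls average about 0.047.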
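Also: Bxb1 expression induced with 0.2% (w/v) L-rhamnose at OD600 near 0.5, cultures sampled hourly, flipped fraction per protease–substrate barcode pair counted by paired-end Illumina sequencing.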

Row | Variant | area with substrate ENLYAQS | area with substrate ENLYDQS | area with substrate ENLYEQS | area with substrate ENLYGQS | area with substrate ENLYHQS | area with substrate ENLYIQS | area with substrate ENLYKQS | area with substrate ENLYMQS | area with substrate ENLYPQS | area with substrate ENLYQQS | area with substrate ENLYRQS | area with substrate ENLYSQS | area with substrate ENLYVQS | area with substrate ENLYWQS | area with substrate ENLYYQS | area with substrate ENLYNQS | area with substrate ENLYLQS | area with substrate ENLYTQS | area with substrate ENLYCQS
1 | Q151I | 0.0617 | 0.0665 | 0.0639 | 0.0584 | 0.0715 | 0.0806 | 0.0208 | 0.0824 | 0.0597 | 0.0503 | 0.0581 | 0.062 | 0.125 | 0.0623 | 0.0798 | – | – | – | –
2 | Y179L | 0.0515 | 0.0499 | – | – | 0.0612 | – | 0.0622 | 0.0567 | 0.0484 | – | 0.0519 | – | – | 0.0668 | – | 0.0616 | – | – | –
3 | S201L | 0.086 | 0.0628 | 0.066 | 0.0535 | 0.0562 | 0.0757 | 0.0624 | 0.089 | 0.0771 | 0.0529 | – | 0.0678 | – | – | 0.0681 | – | 0.0791 | 0.0931 | –
4 | E223R | 0.0562 | 0.0752 | 0.0638 | 0.0573 | 0.0674 | – | 0.0605 | 0.0826 | 0.09 | 0.0834 | – | 0.069 | 0.0455 | – | 0.0758 | 0.0752 | 0.0859 | 0.0987 | –
5 | K142M | 0.068 | 0.0367 | 0.0717 | 0.06 | – | 0.104 | 0.0233 | – | 0.0726 | 0.0476 | – | 0.0626 | 0.105 | 0.0859 | – | 0.0673 | 0.0856 | 0.0924 | 0.0688
6 | S121D | 0.0768 | 0.0738 | 0.0722 | 0.0681 | 0.0713 | 0.101 | – | 0.0827 | 0.0636 | 0.0711 | 0.0749 | 0.074 | 0.116 | – | 0.0589 | 0.0769 | 0.104 | 0.0853 | 0.0858
7 | S127H | 0.0697 | 0.0651 | 0.0667 | 0.0555 | 0.0871 | 0.138 | 0.0275 | – | 0.0689 | 0.0776 | 0.0764 | 0.079 | – | 0.105 | 0.071 | 0.0679 | 0.0842 | – | 0.0543
8 | D11M | 0.0651 | 0.062 | 0.0572 | 0.0619 | 0.06 | 0.0679 | 0.0867 | 0.0422 | 0.0651 | 0.0675 | 0.0637 | 0.0633 | 0.0858 | 0.07 | 0.0689 | 0.0516 | – | 0.0519 | –
9 | F187N | 0.0546 | 0.0512 | 0.0576 | – | 0.0411 | 0.0515 | 0.0604 | 0.0481 | 0.0527 | 0.0448 | 0.0514 | – | 0.0347 | 0.0548 | 0.0494 | 0.0427 | – | – | –
10 | E107S | 0.0802 | 0.0638 | 0.0701 | 0.0988 | 0.0681 | 0.106 | 0.074 | 0.0864 | 0.0704 | 0.051 | 0.067 | 0.091 | 0.0999 | 0.0868 | 0.0441 | – | 0.0768 | 0.082 | –
11 | E107N | 0.0861 | – | – | 0.0704 | 0.0618 | 0.125 | 0.0393 | – | 0.08 | – | – | 0.081 | – | – | – | 0.0754 | – | 0.0921 | –
12 | E107K | 0.0951 | – | 0.0625 | 0.0699 | 0.0746 | 0.0798 | 0.0749 | – | 0.0946 | 0.0588 | 0.0766 | 0.0535 | – | 0.0722 | – | 0.0612 | 0.0722 | 0.074 | –
13 | L77V | 0.0712 | – | 0.0592 | 0.0507 | 0.0663 | 0.125 | – | – | 0.066 | 0.0541 | 0.0658 | 0.0474 | 0.0811 | 0.0544 | – | 0.0688 | 0.0808 | – | –
14 | I164W | 0.0466 | – | 0.0447 | 0.0477 | 0.0503 | – | 0.0595 | 0.0527 | 0.0565 | – | 0.0502 | – | 0.0629 | – | – | 0.05 | – | – | 0.0444
15 | K66I | 0.0867 | 0.0494 | 0.0619 | 0.0409 | 0.0766 | – | 0.072 | 0.116 | 0.0864 | 0.0684 | 0.0742 | – | 0.0938 | – | – | – | – | 0.0896 | –
16 | R204Q | 0.0804 | – | 0.0888 | 0.0612 | 0.0749 | 0.144 | 0.0635 | 0.0928 | 0.0709 | – | 0.059 | 0.0875 | 0.139 | 0.125 | – | 0.0767 | – | – | 0.0986
17 | G213D | 0.0593 | 0.0642 | 0.0693 | 0.0636 | 0.0597 | – | 0.0522 | – | – | 0.0506 | – | 0.0657 | 0.082 | – | 0.0666 | 0.0453 | – | 0.0798 | 0.0654
18 | S124M | 0.052 | 0.0616 | 0.061 | – | 0.0805 | 0.12 | – | 0.0629 | 0.0744 | 0.0995 | 0.0608 | 0.0595 | 0.122 | 0.0813 | – | 0.0478 | – | 0.0776 | –
19 | G54N | 0.0648 | 0.0649 | 0.0635 | 0.0603 | 0.0604 | 0.0752 | 0.0692 | 0.0584 | 0.0608 | 0.0618 | 0.062 | 0.0571 | 0.0552 | 0.0695 | 0.0529 | 0.0719 | – | 0.0618 | –
20 | E108V | 0.0886 | 0.0614 | 0.0576 | 0.0655 | 0.06 | – | 0.0562 | 0.0547 | 0.0527 | – | 0.0593 | 0.058 | 0.0781 | 0.056 | – | 0.0552 | – | 0.0571 | 0.0598
21 | D137C | 0.0633 | 0.0582 | 0.0629 | 0.0742 | 0.0647 | 0.0923 | 0.0578 | – | – | – | – | – | 0.108 | 0.0729 | 0.0607 | 0.0699 | – | – | –
22 | Y12D | 0.0688 | 0.0644 | 0.071 | 0.0655 | 0.0599 | 0.155 | 0.101 | 0.0804 | 0.0794 | 0.0798 | 0.0602 | – | – | 0.0844 | 0.0498 | – | – | 0.0823 | 0.104
23 | S60Y | 0.0794 | 0.0567 | 0.0673 | – | 0.0655 | 0.132 | – | 0.098 | 0.0939 | 0.0619 | 0.061 | – | 0.101 | – | 0.0247 | 0.0641 | 0.0838 | – | –
24 | Q194E | 0.0787 | 0.0536 | 0.063 | – | – | 0.125 | 0.0451 | 0.113 | 0.0634 | – | 0.072 | – | 0.176 | 0.094 | 0.102 | 0.0746 | – | 0.0955 | –
25 | I84C | 0.0803 | 0.053 | 0.065 | 0.0709 | 0.0737 | 0.111 | 0.0882 | – | 0.0957 | 0.0741 | 0.0495 | – | – | – | – | 0.0762 | – | – | 0.0721
